Structures are written as SMILES. In all, about 150,000 compounds went through this assay and about 540 (0.36%) showed an effect of 50% or more. The list shows a part of the results.

This assay has as its system Plasmodium falciparum. Nature of the assay: Primary screen in NF54 nanoGlo assay, in single point, at 2uM, 72h; a lower Z score goes with more inhibition. Format: functional, Erythrocyte. The settings on record: timepoint 72 hour.
Consider `O=S(=O)(NCC1(O)CCCC1)c1ccc2ccccc2c1`, for which the % Inhibition – broadly, the relative decrease from the control value, in per cent – is on record as -9% and the Z score is recorded as 1.51.

With `CC(C)N1CC[C@H]2COC(=O)N2c2ccccc2C1`, the “% Inhibition” value is 1% and the Z score is -0.14.

Take `COc1ccc(OC)c(NC(=O)N2CC[C@H](N(CCN3CCCCC3)C(=O)N(C)C)C2)c1`: the “% Inhibition” value is -3% and the Z score stood at 0.44.

In the case of `CC(C)N(CCC#N)Cn1nc(Nc2cccc(Br)c2)sc1=S`, the “% Inhibition” value is on record as -12% and the Z score is listed as 2.26.

On to `Cc1ncnc2c1CCC(=O)N2CCC1=CCCCC1`, for which the “% Inhibition” value is -19% and the Z score worked out at 2.75.

With `CC(=O)Nc1ccc(NC(=O)CCc2c(-c3ccc(F)cc3)nc3ccccn23)cc1`, the “% Inhibition” value was 1% and the Z score is given as -0.18.

As to `Cc1cc(=O)n(CC(=O)Nc2ccccc2C)c(-c2ccc(F)cc2)n1`, the “% Inhibition” value is on record as -6% and the Z score is listed as 0.52.

On to `O=C(Oc1ccccc1-c1cnc2ccccc2n1)c1ccc(F)cc1`, for which the “% Inhibition” value worked out at 2% and the Z score is listed as -0.3.

Regarding `Cc1n[nH]c([C@@H]2CN(C(=O)NC3CCCC3)CCCN2Cc2ccccc2)n1`, the “% Inhibition” value is -14% and the Z score is 2.68.

As for `CCn1c(NC(=O)C2CCCCC2)c(-c2ccc(Cl)cc2)c(=O)c2ccccc21`, the “% Inhibition” value was found to be 33% and the Z score is reported as -3.76.

As to `COc1cccc(Nc2c3c(nc4ncnn24)CCCC3)c1`, the “% Inhibition” value was -10% and the Z score worked out at 0.94.

`CC12CCCN1C(=O)N(C1CCN(c3ccccc3Cl)C1=O)C2=O` (stereo not drawn): the “% Inhibition” value worked out at 3% and the Z score was -0.35.

In the case of `CCCOc1ccc2c(c1)OCC(C(=O)N1CCC[C@H](C(N)=O)C1)=C2`, the “% Inhibition” value is recorded as 37% and the Z score is on record as -4.2.

As to `CCN(CC(C)C)c1c(N)n(Cc2ccccc2)c(=O)[nH]c1=O`, the “% Inhibition” value is -5% and the Z score was determined as 0.47.

As to `COCC(C)(C)NS(=O)(=O)c1c(C)cc(C)c2nonc12`, the “% Inhibition” value is given as -8% and the Z score worked out at 0.85.

Take `CCC1CC(NC(=O)N[C@H]2CCO[C@@H]2c2ccnn2CC2CC2)CCO1` (stereo partly drawn): the “% Inhibition” value was found to be 4% and the Z score is recorded as -0.7.

Consider `CC1CC1C(=O)N1CCN(S(=O)(=O)c2ccccc2)CC1` (stereo not drawn), for which the “% Inhibition” value is -14% and the Z score is reported as 1.98.

For `CN(C)C(=O)NCc1ccc(C#N)c(F)c1`, the “% Inhibition” value was -1% and the Z score is recorded as 0.1.

As to `Cc1ccccc1[C@@H](NC(=O)N1CCNC(=O)CC1)C(C)(C)C`, the “% Inhibition” value is -5% and the Z score is listed as 0.65.

Take `CN(c1nc2ccc(F)cc2n1C)[C@H]1CCOC1`: the “% Inhibition” value was -4% and the Z score stood at 0.79.

In the case of `O=S(=O)(CCO)c1ccc(NCc2ccc(Cl)s2)cc1`, the “% Inhibition” value is -5% and the Z score was 0.74.

Take `C[C@H]1CN(CC(=O)NCCn2cccn2)Cc2ccccc2O1`: the “% Inhibition” value was -5% and the Z score was 0.99.

With `CC(O)CC(C)CNC(=O)c1c(O)cccc1Cl` (stereo not drawn), the “% Inhibition” value is listed as 1% and the Z score is listed as -0.05.

With `COCCn1cnnc1CCNC(=O)c1cccc(-c2ccco2)c1`, the “% Inhibition” value was -4% and the Z score came out at 0.52.

The values above are taken from ChEMBL document CHEMBL4888484, “Replenishing the malaria drug discovery pipeline: Screening and hit evaluation of the MMV Hit Generation Library 1 (HGL1) against asexual blood stage Plasmodium falciparum ,using a nano luciferase reporter read-out” (2022).
